Common to all, as to assay: uncleaved DNA left, log2 of reads against the no-enzyme library (log2 ratio); higher = less cleavage (more negative = more Rep cleavage of the k-mer); sequences stand for … in CTCGTCCG…ACCGGAGA
The test system of experiment [1] is T1, Rep nickase domain of Muscovy duck circovirus.
T1 sequence (Rep 1-111, printed without the tag): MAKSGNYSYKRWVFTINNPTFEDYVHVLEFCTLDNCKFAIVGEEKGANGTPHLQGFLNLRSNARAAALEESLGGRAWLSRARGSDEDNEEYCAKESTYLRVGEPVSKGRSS
As for the experimental part: (§1)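 A pool of 90-nt single-stranded DNAs with seven random bases just before the constant AC of the nick site (name = the seven bases) was cut by 3 µM recombinant His6-SUMO-tagged Rep nickase domain (300 nM DNA, 50 mM HEPES pH 8.0, 50 mM NaCl, 1 mM MnCl2, 1 h, 37 °C, three replicates). Uncut DNA was amplified and sequenced.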

The test system of experiment [2] is T2, Rep nickase domain of banana bunchy top virus.
T2 sequence (Rep 1-94, printed without the tag): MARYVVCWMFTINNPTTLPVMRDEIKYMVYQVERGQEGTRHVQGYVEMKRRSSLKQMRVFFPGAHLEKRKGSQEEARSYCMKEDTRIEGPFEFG
As for the experimental part:
as §1

Experiment [3] has as its system T3, Rep nickase domain of cabbage leaf curl virus.
T3 sequence (Rep 1-116, printed without the tag): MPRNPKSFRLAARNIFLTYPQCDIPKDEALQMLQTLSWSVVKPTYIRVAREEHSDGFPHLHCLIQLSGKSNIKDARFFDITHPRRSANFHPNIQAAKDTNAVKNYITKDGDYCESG
As for the experimental part:
as §1

For experiment [4], the system named is T4, Rep nickase domain of chickpea chlorotic dwarf virus.
T4 sequence (Rep 1-124, printed without the tag): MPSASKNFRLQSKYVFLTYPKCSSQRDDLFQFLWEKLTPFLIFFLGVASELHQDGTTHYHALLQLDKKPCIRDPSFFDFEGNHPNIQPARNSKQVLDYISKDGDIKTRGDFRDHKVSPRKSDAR
As for the experimental part:
as §1

For experiment [5], the system named is T5, Rep nickase domain of faba bean necrotic yellows virus.
T5 sequence (Rep 1-98, printed without the tag): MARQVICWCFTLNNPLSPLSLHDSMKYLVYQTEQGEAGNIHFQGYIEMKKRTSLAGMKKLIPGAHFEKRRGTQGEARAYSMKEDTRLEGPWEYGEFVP
As for the experimental part: as §1
In experiment [6] the test system is T6, Rep nickase domain of maize striate mosaic virus.
T6 sequence (Rep 1-117, printed without the tag): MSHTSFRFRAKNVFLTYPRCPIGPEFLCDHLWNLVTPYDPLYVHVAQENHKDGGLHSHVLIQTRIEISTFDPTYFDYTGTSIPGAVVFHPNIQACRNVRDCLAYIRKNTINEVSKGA
As for the experimental part: as §1
Experiment [7] has as its system T7, Rep nickase domain of porcine circovirus 2.
T7 sequence (Rep 2-116, printed without the tag): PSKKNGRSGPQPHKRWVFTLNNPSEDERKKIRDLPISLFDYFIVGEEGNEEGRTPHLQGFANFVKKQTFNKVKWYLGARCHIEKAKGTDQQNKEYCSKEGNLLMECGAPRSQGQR
As for the experimental part:
as §1

Experiment [8] relates to T8, Rep nickase domain of tomato golden mosaic virus.
T8 sequence (Rep 1-124, printed without the tag): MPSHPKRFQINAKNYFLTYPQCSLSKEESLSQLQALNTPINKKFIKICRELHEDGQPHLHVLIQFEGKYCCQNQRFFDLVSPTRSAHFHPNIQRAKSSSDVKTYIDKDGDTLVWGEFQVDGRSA
As for the experimental part: as §1
Experiment [9] deals with T9, Rep nickase domain of tomato yellow leaf curl virus.
T9 sequence (Rep 1-136, printed without the tag): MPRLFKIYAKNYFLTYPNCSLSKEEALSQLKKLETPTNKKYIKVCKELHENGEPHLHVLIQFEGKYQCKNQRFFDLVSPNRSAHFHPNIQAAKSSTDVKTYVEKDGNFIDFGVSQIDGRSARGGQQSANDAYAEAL
As for the experimental part:
as §1

Experiment [10] concerns T10, Rep nickase domain of wheat dwarf virus.
T10 sequence (Rep 1-137, printed without the tag): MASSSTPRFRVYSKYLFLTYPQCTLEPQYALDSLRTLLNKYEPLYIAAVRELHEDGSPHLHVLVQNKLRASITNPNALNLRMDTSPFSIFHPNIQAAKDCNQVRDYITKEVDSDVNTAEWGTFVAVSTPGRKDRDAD
As for the experimental part:
as §1

The list shows a part of the results. Each Rep nickase domain was tested in vitro on the same pool of single strands for 1 h at 37 °C with 3 µM enzyme; only the middle of the 90-letter strands is printed. Uncut reads are compared with the no-enzyme pool on a log2 scale; the lower, the more was cut; hits are not called. Counts are relative to all reads; where an enzyme cuts many sequences, the uncut ones exceed 0.

For CGTAGCT, the “uncleaved DNA left (log2)” value in [1] was -0.0151; in [2], 0.0818; in experiment [3], 0.0809; in experiment [4] it was 0.0876; in experiment [5] it was 0.035; in experiment [6], 0.113. Besides, the “uncleaved DNA left (log2)” value in [7] is 0.142; in experiment [8], 0.0984; in experiment [9], -0.12; in [10], 0.0889.
Regarding GGACATC, the “uncleaved DNA left (log2)” value in [1] is -0.0242; in [2] it was 0.0512; in [3], 0.817; in experiment [4], 1.9; in experiment [5], -0.0365; in experiment [6], 2.26. For the same sequence, the “uncleaved DNA left (log2)” value was 0.161 in experiment [7], -0.0422 in experiment [8], -0.0951 in experiment [9] and 0.208 in experiment [10].
Regarding ATTGTAT, the “uncleaved DNA left (log2)” value in [1] is 0.0897; in experiment [2] it was -0.0295; in experiment [3] it was 0.026; in experiment [4], -0.0899; in experiment [5], 0.084; in [6], -0.154. Also, the “uncleaved DNA left (log2)” value in experiment [7] is -0.448; in [8], 0.0271; in experiment [9], 0.114; in experiment [10], 0.0995.
As for CATTCGG, the “uncleaved DNA left (log2)” value in [1] is -0.00628; in experiment [2], -0.0672; in experiment [3], 0.145; in experiment [4], 0.585; in [5] it was -0.0148; in experiment [6] it was 0.0944. Moreover, the “uncleaved DNA left (log2)” value in experiment [7] is 0.203; in experiment [8], -0.037; in experiment [9], -0.0515; in experiment [10], -0.0388.
For TACATGT, the “uncleaved DNA left (log2)” value in [1] is -0.0336; in experiment [2] it was -0.101; in experiment [3] it was -0.31; in experiment [4] it was -1.19; in [5], 0.00397; in experiment [6], -0.536. In addition, the “uncleaved DNA left (log2)” value is -0.381 in experiment [7], -0.0975 in experiment [8], -0.105 in experiment [9] and -0.0955 in experiment [10].
On to AAGAGGT, for which the “uncleaved DNA left (log2)” value in [1] was found to be 0.0287; in [2], 0.0528; in experiment [3], 0.311; in experiment [4], 1.49; in experiment [5] it was 0.0499; in experiment [6] it was 1.82. Further, the “uncleaved DNA left (log2)” value in experiment [7] is -0.193; in [8], 0.0692; in [9] it was -0.143; in experiment [10], 0.0997.
For TTGCCTC, the “uncleaved DNA left (log2)” value in [1] was -0.205; in [2], -0.228; in [3] it was -0.265; in experiment [4], -0.636; in experiment [5] it was -0.0497; in [6] it was -0.831. Also, the “uncleaved DNA left (log2)” value in experiment [7] is -1.48; in experiment [8] it was -0.152; in experiment [9], -0.0189; in experiment [10] it was -0.154.
For CCAGGGA, the “uncleaved DNA left (log2)” value is -0.0654 in [1]; -0.087 in experiment [2]; 0.17 in [3]; 0.562 in experiment [4]; -0.159 in [5]; 0.406 in [6]. Also, the “uncleaved DNA left (log2)” value in experiment [7] is -0.000512; in experiment [8], 0.0525; in [9] it was -0.128; in experiment [10], -0.185.
Turning to GGTACTC, the “uncleaved DNA left (log2)” value in experiment [1] was 0.0315; in [2], 0.079; in experiment [3], 0.679; in experiment [4] it was 1.59; in experiment [5], -0.0777; in [6] it was 2.06. Also, the “uncleaved DNA left (log2)” value was 0.208 in experiment [7], -0.0347 in [8], 0.0645 in experiment [9] and 0.0718 in experiment [10].
Regarding ACTCTTA, the “uncleaved DNA left (log2)” value was -0.104 in [1]; -0.209 in [2]; -0.147 in experiment [3]; -1.51 in experiment [4]; 0.0259 in [5]; -0.915 in experiment [6]. Besides, the “uncleaved DNA left (log2)” value in [7] is -0.1; in [8], -0.0601; in experiment [9], -0.102; in [10], 0.00522.
On to CGTCGCA, for which the “uncleaved DNA left (log2)” value is -0.0618 in [1]; 0.00866 in experiment [2]; -0.0983 in experiment [3]; -0.066 in [4]; -0.0116 in [5]; -0.23 in experiment [6]. Also, the “uncleaved DNA left (log2)” value was 0.145 in experiment [7], 0.0405 in [8], 0.0358 in experiment [9] and 0.141 in [10].
For the sequence GAGCATA, the “uncleaved DNA left (log2)” value is 0.0568 in experiment [1]; 0.0423 in experiment [2]; 0.21 in experiment [3]; 0.526 in experiment [4]; -0.0366 in experiment [5]; 1.38 in experiment [6]. Besides, the “uncleaved DNA left (log2)” value in experiment [7] was -0.601; in experiment [8], -0.0881; in experiment [9], 0.012; in experiment [10], 0.106.
In the case of CACATCG, the “uncleaved DNA left (log2)” value in experiment [1] is 0.00495; in experiment [2] it was -0.0846; in [3], -0.837; in experiment [4], 0.393; in experiment [5], 0.119; in [6], -0.581. The “uncleaved DNA left (log2)” value in [7] is 0.0949; in [8] it was -0.159; in [9], 0.118; in experiment [10], -0.0536.
Consider TCACGCC, for which the “uncleaved DNA left (log2)” value is 0.0277 in experiment [1]; -0.085 in experiment [2]; -0.043 in experiment [3]; -0.475 in [4]; -0.0237 in experiment [5]; -0.735 in experiment [6]. For the same sequence, the “uncleaved DNA left (log2)” value in experiment [7] was 0.00461; in [8], -0.00901; in experiment [9], -0.0677; in experiment [10], -0.0064.
As for CCACGGG, the “uncleaved DNA left (log2)” value in experiment [1] was -0.00415; in experiment [2], 0.108; in experiment [3] it was -0.177; in experiment [4], -0.0414; in experiment [5] it was -0.0631; in experiment [6], -0.656. Besides, the “uncleaved DNA left (log2)” value in [7] was 0.119; in experiment [8] it was -0.0172; in [9], 0.0234; in experiment [10], -0.017.

The record behind these values is the supplement of paper PMC7826260.
